The record followed here is patent US20060063236A1.

Test [1] concerns the target IL-4 receptor alpha chain (IL-4Rα) (human) (UniProt P24394). As to the kind of experiment: cell-based or functional assay.
Test [2] concerns the target T1, IL-9 receptor alpha chain (IL-9Rα) (human) (UniProt Q01113).
T1 sequence (looked up): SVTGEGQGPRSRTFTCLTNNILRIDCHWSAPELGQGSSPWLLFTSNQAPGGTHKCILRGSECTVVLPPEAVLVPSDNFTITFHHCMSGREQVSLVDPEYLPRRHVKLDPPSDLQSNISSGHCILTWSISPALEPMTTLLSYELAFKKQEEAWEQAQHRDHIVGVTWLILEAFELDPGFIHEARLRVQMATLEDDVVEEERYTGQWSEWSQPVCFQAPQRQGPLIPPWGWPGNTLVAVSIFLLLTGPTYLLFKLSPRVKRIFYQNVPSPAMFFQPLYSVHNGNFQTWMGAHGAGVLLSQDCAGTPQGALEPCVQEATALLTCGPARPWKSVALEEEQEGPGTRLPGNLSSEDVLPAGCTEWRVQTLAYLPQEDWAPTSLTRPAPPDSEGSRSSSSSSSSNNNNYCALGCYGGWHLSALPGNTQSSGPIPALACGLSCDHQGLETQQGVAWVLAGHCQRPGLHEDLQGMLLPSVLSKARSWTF
The test can be described thus: cell-based or functional assay.

UniProt P24394, sequence (P24394 26-825): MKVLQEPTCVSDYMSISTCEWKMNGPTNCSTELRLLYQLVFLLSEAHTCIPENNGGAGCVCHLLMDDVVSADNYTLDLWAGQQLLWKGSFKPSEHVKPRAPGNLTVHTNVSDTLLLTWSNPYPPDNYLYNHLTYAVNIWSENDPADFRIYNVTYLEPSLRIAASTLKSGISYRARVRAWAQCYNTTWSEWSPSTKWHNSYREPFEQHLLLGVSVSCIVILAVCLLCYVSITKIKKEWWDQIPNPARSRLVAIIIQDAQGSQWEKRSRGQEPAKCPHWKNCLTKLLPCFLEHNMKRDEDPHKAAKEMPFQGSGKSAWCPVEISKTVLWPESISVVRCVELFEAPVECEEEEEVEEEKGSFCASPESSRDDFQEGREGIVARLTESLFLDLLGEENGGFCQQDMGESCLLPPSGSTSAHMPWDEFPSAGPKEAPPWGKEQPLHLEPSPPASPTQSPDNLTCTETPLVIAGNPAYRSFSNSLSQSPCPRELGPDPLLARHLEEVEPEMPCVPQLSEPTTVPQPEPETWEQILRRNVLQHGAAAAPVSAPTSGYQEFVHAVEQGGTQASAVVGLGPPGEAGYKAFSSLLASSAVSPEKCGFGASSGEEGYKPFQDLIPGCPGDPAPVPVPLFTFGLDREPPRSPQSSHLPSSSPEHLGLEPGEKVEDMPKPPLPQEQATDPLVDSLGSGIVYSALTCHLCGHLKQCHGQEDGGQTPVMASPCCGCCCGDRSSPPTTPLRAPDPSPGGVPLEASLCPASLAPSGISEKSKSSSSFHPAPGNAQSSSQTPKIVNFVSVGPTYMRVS

B1: His6TEV-IL-9RA/IL-4RA chimeric polypeptide (SEQ ID NO:4) (ligand)
chain: QGHHHHHHDYDIPTTENLYF[about 120 residues not given here]HKCDITLQEIIKTLNSLTEQKTLCTELTVTDIFAASKNTTEKETFCRAATVLRQFYSHHEKDTRCLGATAQQFHRHKQLIRFLKRLDRNLWGLAGLNSCPVKEANQSTLENFLERLKTIMDEKDSKCSS
In test [1], B1 registered an IC50, inhibition of IL-4 (0.5 ng/ml) induced Mo7e cell proliferation (AlamarBlue) of 10.1 nM; an IC50, inhibition of IL-4 (10 ng/ml) induced primary B-cell proliferation (tritiated thymidine incorporation) of 10.6 nM; an IC50, inhibition of IL-4 (10 ng/ml) induced primary PHA T-cell blast proliferation (tritiated thymidine incorporation) of 34 nM; an IC50, inhibition of IL-13 (5 ng/ml) induced TF-1 cell proliferation (AlamarBlue) of 20.1 nM. Also, the IC50, inhibition of IL-9 (0.25 ng/ml) induced Mo7e cell proliferation (AlamarBlue) in test [2] was found to be 83.6 nM.

B2: His6TEV-IL-4RA/IL-9RA chimeric polypeptide (SEQ ID NO:2) (ligand)
chain: QGHHHHHHDYDIPTTENLYFQGHKCDITLQEIIKTLNSLTEQKTLCTELTVTDIFAASKNTTEKETFCRAATVLRQFYSHHEKDTRCLGATAQQFHRHKQLIRFLKRLDRNLWGLAGLNSCPVKEANQSTLENFLERLKTIMDEKDSKCSS[about 120 residues not given here]
For B2, in test [1], the IC50, inhibition of IL-4 (0.5 ng/ml) induced Mo7e cell proliferation (AlamarBlue) turned out to be 15.2 nM; the IC50, inhibition of IL-4 (0.5 ng/ml) induced TF-1 cell proliferation (AlamarBlue) came out at 20.7 nM; the IC50, inhibition of IL-4 (10 ng/ml) induced primary B-cell proliferation (tritiated thymidine incorporation) came out at 16.3 nM; the IC50, inhibition of IL-4 (10 ng/ml) induced primary PHA T-cell blast proliferation (tritiated thymidine incorporation) is 104 nM. Further, the IC50, inhibition of IL-13 (5 ng/ml) induced TF-1 cell proliferation (AlamarBlue) in test [1] came out at 56.2 nM. The molecule further displayed an IC50, inhibition of IL-9 (0.25 ng/ml) induced Mo7e cell proliferation (AlamarBlue) in test [2] of 571 nM.
